In the supplement of paper PMC11876631:
± gives the standard deviation of the averaged measurements. Laboratory Escherichia coli strains with one amino-acid change in an essential protein, pooled on minimal glucose agar with carbenicillin or gentamicin at twice the control MIC (plus kanamycin and chloramphenicol for the plasmids), 48 h. Fold change of barcode share against drug-free plates; higher = less susceptible. Active = above 20 in both replicates (the paper's putatively resistant). '<' = one read or none on drug, '>' = one read or none on a drug-free plate. Shares are relative, so most strains fall below 1 when a few take over. Listed are strains with at least 15 reads on both drug-free plates, and hits; most hits rest on fewer reference reads. Replicate rank correlation about 0.5. Edits are read from barcodes.

B1: panB L42W (protein)
chain: MKPTTISLLQKYKQEKKRFATITAYDYSFAKLFADEGLNVMWVGDSLGMTVQGHDSTLPVTVADIAYHTAAVRRGAPNCLLLADLPFMAYATPEQAFENAATVMRAGANMVKIEGGEWLVETVQMLTERAVPVCGHLGLTPQSVNIFGGYKVQGRGDEAGDQLLSDALALEAAGAQLLVLECVPVELAKRITEALAIPVIGIGAGNVTDGQILVMHDAFGITGGHIPKFAKNFLAETGDIRAAVRQYMAEVESGVYPGEEHSFH
B2: panB L82A (protein)
chain: MKPTTISLLQKYKQEKKRFATITAYDYSFAKLFADEGLNVMLVGDSLGMTVQGHDSTLPVTVADIAYHTAAVRRGAPNCLLAADLPFMAYATPEQAFENAATVMRAGANMVKIEGGEWLVETVQMLTERAVPVCGHLGLTPQSVNIFGGYKVQGRGDEAGDQLLSDALALEAAGAQLLVLECVPVELAKRITEALAIPVIGIGAGNVTDGQILVMHDAFGITGGHIPKFAKNFLAETGDIRAAVRQYMAEVESGVYPGEEHSFH
B3: panB V40Q (protein)
chain: MKPTTISLLQKYKQEKKRFATITAYDYSFAKLFADEGLNQMLVGDSLGMTVQGHDSTLPVTVADIAYHTAAVRRGAPNCLLLADLPFMAYATPEQAFENAATVMRAGANMVKIEGGEWLVETVQMLTERAVPVCGHLGLTPQSVNIFGGYKVQGRGDEAGDQLLSDALALEAAGAQLLVLECVPVELAKRITEALAIPVIGIGAGNVTDGQILVMHDAFGITGGHIPKFAKNFLAETGDIRAAVRQYMAEVESGVYPGEEHSFH
B4: panB M41Q (protein)
chain: MKPTTISLLQKYKQEKKRFATITAYDYSFAKLFADEGLNVQLVGDSLGMTVQGHDSTLPVTVADIAYHTAAVRRGAPNCLLLADLPFMAYATPEQAFENAATVMRAGANMVKIEGGEWLVETVQMLTERAVPVCGHLGLTPQSVNIFGGYKVQGRGDEAGDQLLSDALALEAAGAQLLVLECVPVELAKRITEALAIPVIGIGAGNVTDGQILVMHDAFGITGGHIPKFAKNFLAETGDIRAAVRQYMAEVESGVYPGEEHSFH
B5: panB M215P (protein)
chain: MKPTTISLLQKYKQEKKRFATITAYDYSFAKLFADEGLNVMLVGDSLGMTVQGHDSTLPVTVADIAYHTAAVRRGAPNCLLLADLPFMAYATPEQAFENAATVMRAGANMVKIEGGEWLVETVQMLTERAVPVCGHLGLTPQSVNIFGGYKVQGRGDEAGDQLLSDALALEAAGAQLLVLECVPVELAKRITEALAIPVIGIGAGNVTDGQILVPHDAFGITGGHIPKFAKNFLAETGDIRAAVRQYMAEVESGVYPGEEHSFH
B6: panB L42Q (protein)
chain: MKPTTISLLQKYKQEKKRFATITAYDYSFAKLFADEGLNVMQVGDSLGMTVQGHDSTLPVTVADIAYHTAAVRRGAPNCLLLADLPFMAYATPEQAFENAATVMRAGANMVKIEGGEWLVETVQMLTERAVPVCGHLGLTPQSVNIFGGYKVQGRGDEAGDQLLSDALALEAAGAQLLVLECVPVELAKRITEALAIPVIGIGAGNVTDGQILVMHDAFGITGGHIPKFAKNFLAETGDIRAAVRQYMAEVESGVYPGEEHSFH
B7: panB V40A (protein)
chain: MKPTTISLLQKYKQEKKRFATITAYDYSFAKLFADEGLNAMLVGDSLGMTVQGHDSTLPVTVADIAYHTAAVRRGAPNCLLLADLPFMAYATPEQAFENAATVMRAGANMVKIEGGEWLVETVQMLTERAVPVCGHLGLTPQSVNIFGGYKVQGRGDEAGDQLLSDALALEAAGAQLLVLECVPVELAKRITEALAIPVIGIGAGNVTDGQILVMHDAFGITGGHIPKFAKNFLAETGDIRAAVRQYMAEVESGVYPGEEHSFH
B8: panB M41A (protein)
chain: MKPTTISLLQKYKQEKKRFATITAYDYSFAKLFADEGLNVALVGDSLGMTVQGHDSTLPVTVADIAYHTAAVRRGAPNCLLLADLPFMAYATPEQAFENAATVMRAGANMVKIEGGEWLVETVQMLTERAVPVCGHLGLTPQSVNIFGGYKVQGRGDEAGDQLLSDALALEAAGAQLLVLECVPVELAKRITEALAIPVIGIGAGNVTDGQILVMHDAFGITGGHIPKFAKNFLAETGDIRAAVRQYMAEVESGVYPGEEHSFH
B9: panC I263A (protein)
chain: MLIIETLPLLRQQIRRLRMEGKRVALVPTMGNLHDGHMKLVDEAKARADVVVVSIFVNPMQFDRPEDLARYPRTLQEDCEKLNKRKVDLVFAPSVKEIYPNGTETHTYVDVPGLSTMLEGASRPGHFRGVSTIVSKLFNLVQPDIACFGEKDFQQLALIRKMVADMGFDIEIVGVPIMRAKDGLALSSRNGYLTAEQRKIAPGLYKVLSSIADKLQAGERDLDEIITIAGQELNEKGFRADDIQIRDADTLLEVSETSKRAVALVAAWLGDARLIDNKMVELA
B10: panC V141D (protein)
chain: MLIIETLPLLRQQIRRLRMEGKRVALVPTMGNLHDGHMKLVDEAKARADVVVVSIFVNPMQFDRPEDLARYPRTLQEDCEKLNKRKVDLVFAPSVKEIYPNGTETHTYVDVPGLSTMLEGASRPGHFRGVSTIVSKLFNLDQPDIACFGEKDFQQLALIRKMVADMGFDIEIVGVPIMRAKDGLALSSRNGYLTAEQRKIAPGLYKVLSSIADKLQAGERDLDEIITIAGQELNEKGFRADDIQIRDADTLLEVSETSKRAVILVAAWLGDARLIDNKMVELA
B11: panC V141W (protein)
chain: MLIIETLPLLRQQIRRLRMEGKRVALVPTMGNLHDGHMKLVDEAKARADVVVVSIFVNPMQFDRPEDLARYPRTLQEDCEKLNKRKVDLVFAPSVKEIYPNGTETHTYVDVPGLSTMLEGASRPGHFRGVSTIVSKLFNLWQPDIACFGEKDFQQLALIRKMVADMGFDIEIVGVPIMRAKDGLALSSRNGYLTAEQRKIAPGLYKVLSSIADKLQAGERDLDEIITIAGQELNEKGFRADDIQIRDADTLLEVSETSKRAVILVAAWLGDARLIDNKMVELA
B12: panM M112A (protein)
chain: MKLTIIRLEKFSDQDRIDLQKIWPEYSPSSLQVDDNHRIYAARFNERLLAAVRVTLSGTEGALDSLRVREVTRRRGVGQYLLEEVLRNNPGVSCWWMADAGVEDRGVMTAFAQALGFTAQQGGWEKC
B13: panM V77D (protein)
chain: MKLTIIRLEKFSDQDRIDLQKIWPEYSPSSLQVDDNHRIYAARFNERLLAAVRVTLSGTEGALDSLRVREVTRRRGDGQYLLEEVLRNNPGVSCWWMADAGVEDRGVMTAFMQALGFTAQQGGWEKC
B14: panM V77W (protein)
chain: MKLTIIRLEKFSDQDRIDLQKIWPEYSPSSLQVDDNHRIYAARFNERLLAAVRVTLSGTEGALDSLRVREVTRRRGWGQYLLEEVLRNNPGVSCWWMADAGVEDRGVMTAFMQALGFTAQQGGWEKC
B15: panM V77Q (protein)
chain: MKLTIIRLEKFSDQDRIDLQKIWPEYSPSSLQVDDNHRIYAARFNERLLAAVRVTLSGTEGALDSLRVREVTRRRGQGQYLLEEVLRNNPGVSCWWMADAGVEDRGVMTAFMQALGFTAQQGGWEKC
B16: panM M112Q (protein)
chain: MKLTIIRLEKFSDQDRIDLQKIWPEYSPSSLQVDDNHRIYAARFNERLLAAVRVTLSGTEGALDSLRVREVTRRRGVGQYLLEEVLRNNPGVSCWWMADAGVEDRGVMTAFQQALGFTAQQGGWEKC
B17: panM M112W (protein)
chain: MKLTIIRLEKFSDQDRIDLQKIWPEYSPSSLQVDDNHRIYAARFNERLLAAVRVTLSGTEGALDSLRVREVTRRRGVGQYLLEEVLRNNPGVSCWWMADAGVEDRGVMTAFWQALGFTAQQGGWEKC
B18: panM M112P (protein)
chain: MKLTIIRLEKFSDQDRIDLQKIWPEYSPSSLQVDDNHRIYAARFNERLLAAVRVTLSGTEGALDSLRVREVTRRRGVGQYLLEEVLRNNPGVSCWWMADAGVEDRGVMTAFPQALGFTAQQGGWEKC
B19: panM M112D (protein)
chain: MKLTIIRLEKFSDQDRIDLQKIWPEYSPSSLQVDDNHRIYAARFNERLLAAVRVTLSGTEGALDSLRVREVTRRRGVGQYLLEEVLRNNPGVSCWWMADAGVEDRGVMTAFDQALGFTAQQGGWEKC

What follows are proteins tested against Escherichia coli (laboratory strain) (assay: barcode share on antibiotic plates over drug-free plates; higher = less susceptible). Settings: antibiotic: carbenicillin; 2× MIC (3.1 µg/mL).
Protocol: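 A pool of E. coli strains, each edited to carry one amino-acid change in an essential protein, was grown for 48 h on minimal glucose agar with or without antibiotic; strain barcodes were sequenced; mean of two replicates.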

| Protein | fold change of barcode share |
| --- | --- |
| B1 | 9.27 ± 2.1 |
| B2 | 2.75 ± 0.14 |
| B3 | 10.1 ± 4.1 |
| B4 | 0.494 ± 0.099 |
| B5 | 0.255 ± 0.08 |
| B6 | 7.86 ± 0.64 |
| B7 | 0.564 ± 0.028 |
| B8 | 7.83 ± 0.39 |
| B9 | 0.309 ± 0.042 |
| B10 | 0.253 ± 0.02 |
| B11 | 0.276 ± 0.061 |
| B12 | 2.33 ± 0.45 |
| B13 | 7.63 ± 3.9 |
| B14 | 9.51 ± 0.3 |
| B15 | 9.17 ± 3.2 |
| B16 | 1.79 ± 0.19 |
| B17 | 2.17 ± 0.52 |
| B18 | 6.49 ± 2.9 |
| B19 | 5.92 ± 2.8 |

Same assay, conditions: antibiotic: gentamicin; 2× MIC (MIC 0.45 µg/mL)

| Protein | fold change of barcode share |
| --- | --- |
| B2 | 0.0102 ± 0.0034 |
| B4 | 0.00795 ± 0.0015 |
| B7 | 0.00959 ± 0.0061 |
| B9 | 0.00614 ± 0.0024 |
| B11 | 0.0134 ± 0.0043 |
| B12 | 0.0264 ± 0.012 |
| B13 | 0.136 ± 0.0054 |
| B14 | 0.0958 ± 0.098 |
| B15 | 0.159 ± 0.1 |
| B16 | 0.0207 ± 0.004 |
| B17 | 0.0356 ± 0.0053 |
| B18 | 0.0722 ± 0.083 |
| B19 | 0.0978 ± 0.068 |
